# Test results published in the supplement of paper PMC11417369.
# ± gives the standard deviation of the averaged measurements. Some of the results follow.
# Test system: PfAP2-LT AP2 domain (GST-tagged)
# Assay: gcPBM binding intensity (ln(normalized median fluorescence intensity)); higher = stronger DNA binding
# Method in brief: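 For binding intensity, the highest Masliner-normalised natural-log median intensity across replicate spots of either probe orientation was taken. Protein bound to the array was stained with Alexa488 anti-GST antibody and scanned at 488 nm. The protein, GST-tagged P. falciparum DNA-binding domains from E. coli at about 25 μg on average, had been applied for 1 h to an Agilent 4 × 180k array of primer-extended double-stranded 36-bp intergenic genomic probes and negative controls.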
row,Sequence,gcPBM binding intensity (ln)
1,AATTTGTAAAATAAGGTGCGTATAAAAAATTATATT [GTGCAC_site9676],8.73 ± 0.46
2,ATTTAATAAAAAAAAAAAATATTGTAGAATATGATG [GTGCAC_negctrl_site195],8.27 ± 0.52
3,CAAATGGTAAATGAAAGTACAAATTGTTTTGATTAA [XGTACX_site1536],8.9 ± 0.4
4,ATATACATATTCTTGTGTACATAAAAATTTATATAT [XGTACX_site8726],8.74 ± 0.35
5,TTATATTTTATATTTACACACATTTATATTTATAAA [CACACA_site203],8.78 ± 0.44
6,TTTATAATTTTAAAATGTACAAGGAGGAAAAATTCT [XGTACX_site422],8.49 ± 0.38
7,TATATAAATATTCGTAGTACAATACAATTATAAGTA [XGTACX_site3068],8.71 ± 0.43
8,TATATATTTTTTTCAAGTACACATTACAGTTACATA [XGTACX_site2713],8.65 ± 0.38
9,ATTCGATGTTTTAAATGTACACAAATTGAAGGAATA [XGTACX_site409],8.7 ± 0.42
10,ATGTTTTCTCTTTCGGTGCATTGTTTTCTATACTTT [GTGCAC_site9483],9.22 ± 0.52
11,GTATATAATTTTTTTTTTTTTTTCATTCTTTTCCTT [CACACA_negctrl_site1780],8.46 ± 0.59
12,AAATATATGAAATATACACACTTCTTTGGTATTATT [CACACA_site4414],8.91 ± 0.38
13,ATGAATTGACCATATTGTACATATTTAGGACTTACC [XGTACX_site8072],8.87 ± 0.38
14,TTTTCTTACATGAGTGTACACACTTTTTTTCAGAAA [CACACA_site70],8.79 ± 0.42
15,TTTATATAATTTTAATGTACATATATATATATAAAT [XGTACX_site4381],8.51 ± 0.42
16,TATCTATAATATTATACACACATATATGCATAATAT [CACACA_site6175],9.16 ± 0.39
17,TAATAAATAAGATTCACACATATTTAAATGTTATGC [CACACA_site5275],8.66 ± 0.35
18,TTCTTCACATACACTTCAAAATTTGATAAAACATTA [CACACA_negctrl_site472],8.52 ± 0.47
19,ATATATCATAAATAAATGAAAATATTTTCTATGTGT [CACACA_negctrl_site689],8.66 ± 0.41
20,TTATTTGAATAATGTTTGCACTTAGAGTATTTTATA,8.65 ± 0.37
21,TATTATAAAACATTATGTACATATTCTGAAAAATAG [XGTACX_site6577],8.57 ± 0.35
22,CAAAATAAAAAATTCACACACATATATATATATATA [CACACA_site2088],9.78 ± 0.12
23,TATTTCTTATTTATTTTTTAAGGAAATTAAAGATTT [CACACA_negctrl_site258],8.04 ± 0.27

row,Sequence,gcPBM binding intensity (ln)
1,AAAACAAATGCTTAAAGTACTTATTATTTTTCTTTT [XGTACX_site6324],8.62 ± 0.47
2,TTCCTACTATTCAAACGTACAAAATATTTAAATAAT [XGTACX_site700],8.39 ± 0.35
3,TAAAAATATCTGTATACACACATATATATATATATA [CACACA_site6042],9.59 ± 0.13
4,AAAAAAAAAAAAAAAAGTACAAATCTTTATTTATTA [XGTACX_site3305],8.29 ± 0.46
5,CAAGTTCAAAATACAAGGAAGAAACAAAACTTGGCG [GTGCAC_negctrl_site600],9 ± 0.48
6,ATAATATAATATAAAACACACATATGTACCTTCTAA [CACACA_site2761],8.91 ± 0.35
7,TAATATTTCTTATTTTATATTTGTATATGAATGGAT [XGTACX_negctrl_site278],8.54 ± 0.51
8,TATTTTTACCCATAAAGTACACATAAATATAAAATA [XGTACX_site177],8.55 ± 0.46
9,TATATATCTATATATTGTACATATGTTTGTATGTGT [XGTACX_site7420],9.23 ± 0.47
10,ATATAAATCATTGGTTGTACATATAATATTTTATAA [XGTACX_site925],8.55 ± 0.35
11,TATGATATCTATAATACACACATATACATAAGATCT [CACACA_site6652],8.93 ± 0.33
12,TTAATATAACTTTTTGCACACTTAATTTTTTTTTTT [CACACA_site3364],8.98 ± 0.52
13,TTATATAAAACATTAACACACAAAGAAAAAAAATTA [CACACA_site1793],8.79 ± 0.49
14,TATATATTAGAAGATAGTACATATATATTTATTAAT [XGTACX_site1011],8.63 ± 0.39
15,GCTCAATGTTTTACATGTACATATATATATATATAT [XGTACX_site8210],9.495 ± 0.021
16,TGGTGATCAAAATATACATGCATATGTTCTGTTATT [TGCATGCA_site614],8.94 ± 0.51
17,CAACATTTGATAAACACACAGAAGTATAAATATATA [CACACA_site2365],9 ± 0.45
18,ATCGTTATATAAAAATGTACTTATAAATTGTATACA [XGTACX_site6664],8.68 ± 0.44
19,AAAGGAAAAATCCAAGTGCATTATTATTTTCACAAA [GTGCAC_site9995],8.51 ± 0.54
20,TAGTATAATATGAACACACACACACGCACAAAAAAA [CACACA_site7035],9.94 ± 0.27
21,TGTAAGCACATACAAACACACAACATTATTTTTATC [CACACA_site2186],9.16 ± 0.48
22,GAAAAAAATGAAATTAGTACTTATCTTAAATTTTTA [XGTACX_site1018],8.24 ± 0.45
23,AAAAATATATAATAAAGTACACATAAATGAATAAAT [XGTACX_site329],9.07 ± 0.48

row,Sequence,gcPBM binding intensity (ln)
1,TTTTTTTTTTTTTGATGTACAATTAATATTATAAAA [XGTACX_site6969],8.16 ± 0.4
2,AGTAATAAATAATTTACACACATATTATATCATCAC [CACACA_site1890],9.1 ± 0.33
3,CATTTTAAAGAAAATACACACAAAAATAGATATATA [CACACA_site6773],8.87 ± 0.42
4,ATTTCTTTTTTATTGAGTACATATGACCATGTTCAA [XGTACX_site5365],8.78 ± 0.49
5,AAGAAATAAAGCAAAACATGCACTCGAAAATGTTTT [TGCATGCA_site1014],8.91 ± 0.38
6,TATTGTTAAAATGAATAATTAAAACAGTAATGAATA [XGTACX_negctrl_site170],8.52 ± 0.53
7,TTAGCAACTATTACTACACACATTTTTATATAACTT [CACACA_site6762],8.97 ± 0.47
8,ATGTCTAATTTTGATGCACACTTTTGTGCAATTAAA [CACACA_site5589],8.72 ± 0.41
9,TATATATGTTTTTATGTACACACTTTTAACCTAAGA [CACACA_site1149],8.79 ± 0.42
10,CGCATGCAATGTTAATGTACATATATATATATATGT [XGTACX_site3316],9.12 ± 0.22
11,AGGTGCAAAAATAAAACATGCAAAAATAAAAATGAA [TGCATGCA_site502],9.12 ± 0.6
12,AATAATTAAATAAGAGTGCATGAAACAGGAAATTTC,9 ± 0.4
13,AATAGTCGTGTGCATACACACCTTAACTATAATATA [CACACA_site6636],9.14 ± 0.28
14,TAATAAAAAATATATACACACAAATAAATAAATAAA [CACACA_site4037],8.96 ± 0.4
15,ATTCAGTTATATAATACACACATATATTGACATTAT [CACACA_site2723],9.04 ± 0.35
16,ACAGTATCTGGTAGCTGTACGAGTCGTAGAGAGTAG [XGTACX_site2041],9.09 ± 0.46
17,TACGCTCCCAGACACACACACACACCGATATAATAT [CACACA_site8098],9.89 ± 0.23
18,ATTTATTGACTATTTACACACATATTTATTAAAATA [CACACA_site4980],8.88 ± 0.28
19,TATTATATTATGTGATGTACATATTTATATAGGCCC [XGTACX_site4746],8.72 ± 0.47
20,TATTACATACCTTATTGTACAAATTATATATTAAAG [XGTACX_site7334],8.61 ± 0.36
21,TAATTTTTTTTTAATTGTACATGTGAATATATTTCA [XGTACX_site4115],8.52 ± 0.42
22,GTTTACATTTTAAGAAGTACAAAATTTATGGTTAAA [XGTACX_site450],8.47 ± 0.42
23,TATATATATATATGTAGTACTCAATATTGTAGATTA [XGTACX_site3856],9.265 ± 0.064

row,Sequence,gcPBM binding intensity (ln)
1,AAATATATGTATATATGTACATATGTGTGCTATCAT [XGTACX_site1604],9.15 ± 0.42
2,AAACAATTGAATAAATGTACAGATACATTTTTTTAA [XGTACX_site5386],8.59 ± 0.38
3,TATTTATCTATTTTGTTATATAATAAAATAAAATAA [CACACA_negctrl_site281],8.01 ± 0.44
4,AAAAATAAACAAAATTGTACACATTACATACATATA [XGTACX_site966],8.85 ± 0.43
5,ATACATACAAAAATTTGTACATATTTCCAATAATGT [XGTACX_site2658],8.73 ± 0.4
6,GAAAAAACGAAAAAAATACACACCTGAAAAGATATG [CACACA_site887],9.12 ± 0.42
7,GCCATAATATGACATACACACACAAAAAAAAAAAAA [CACACA_site8353],9.36 ± 0.61
8,AAATTTCCATTTGGGTGTACATGTGAAACTACAAAG [XGTACX_site208],8.69 ± 0.48
9,TTTTTATTTATATGATACTTATATATATATATATAT [CACACA_negctrl_site462],9.01 ± 0.4
10,TCTTTTAAAAAAATTTGTACATATTTTTTGTATTAT [XGTACX_site67],8.68 ± 0.51
11,TTCTTAATATTGCATGCACACTATATAATAATTGAA [CACACA_site4720],9.05 ± 0.3
12,TTTTCCCTCTTATTCACACAAAAAAAATAAAATAAA [CACACA_site4656],8.2 ± 0.42
13,ACACTAACATCATATCGTACATTTGTTAATTTATAA [XGTACX_site8654],8.74 ± 0.36
14,TATTTATTTTTTTTTGTGCACTTAATATAATCTTAC,8.82 ± 0.58
15,TATTTGAAAACATAGGTGCACATTATTTTATAATCT [GTGCAC_site9947],8.8 ± 0.55
16,GAAAGAATAAAATTTACACACATATAAATATACATA [CACACA_site7125],8.96 ± 0.47
17,TTTATTCTTGAGTATTGTACATATGTGTTTGTATAT [XGTACX_site5706],8.93 ± 0.45
18,AAAGGTGTCATATATGCACACAAAAGTAACACGCAC [CACACA_site8051],9.39 ± 0.32
19,AGGAGGATGCATATGGCACACATTATGAAACTGTCG [CACACA_site299],9.16 ± 0.51
20,TTTTTTTTTGAATACAGTACACAAGTGTTAAGTTTA [XGTACX_site7069],8.45 ± 0.38
